# The campaign covered roughly 310,000 compounds. About 14,000 (4.5%) showed an effect of 50% or more. Effects have a minus sign here. Some of the results follow.
# Biological target: human ether-à-go-go-related gene (hERG) potassium channel (human, UniProt Q12809)
# Assay: primary screen, population patch clamp on CHO cells stably expressing hERG
# 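Note: peak tail current of the secondary pulse compared with the same well before compound.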
# Sequence of human ether-à-go-go-related gene (hERG) potassium channel (Q12809 whole entry, looked up): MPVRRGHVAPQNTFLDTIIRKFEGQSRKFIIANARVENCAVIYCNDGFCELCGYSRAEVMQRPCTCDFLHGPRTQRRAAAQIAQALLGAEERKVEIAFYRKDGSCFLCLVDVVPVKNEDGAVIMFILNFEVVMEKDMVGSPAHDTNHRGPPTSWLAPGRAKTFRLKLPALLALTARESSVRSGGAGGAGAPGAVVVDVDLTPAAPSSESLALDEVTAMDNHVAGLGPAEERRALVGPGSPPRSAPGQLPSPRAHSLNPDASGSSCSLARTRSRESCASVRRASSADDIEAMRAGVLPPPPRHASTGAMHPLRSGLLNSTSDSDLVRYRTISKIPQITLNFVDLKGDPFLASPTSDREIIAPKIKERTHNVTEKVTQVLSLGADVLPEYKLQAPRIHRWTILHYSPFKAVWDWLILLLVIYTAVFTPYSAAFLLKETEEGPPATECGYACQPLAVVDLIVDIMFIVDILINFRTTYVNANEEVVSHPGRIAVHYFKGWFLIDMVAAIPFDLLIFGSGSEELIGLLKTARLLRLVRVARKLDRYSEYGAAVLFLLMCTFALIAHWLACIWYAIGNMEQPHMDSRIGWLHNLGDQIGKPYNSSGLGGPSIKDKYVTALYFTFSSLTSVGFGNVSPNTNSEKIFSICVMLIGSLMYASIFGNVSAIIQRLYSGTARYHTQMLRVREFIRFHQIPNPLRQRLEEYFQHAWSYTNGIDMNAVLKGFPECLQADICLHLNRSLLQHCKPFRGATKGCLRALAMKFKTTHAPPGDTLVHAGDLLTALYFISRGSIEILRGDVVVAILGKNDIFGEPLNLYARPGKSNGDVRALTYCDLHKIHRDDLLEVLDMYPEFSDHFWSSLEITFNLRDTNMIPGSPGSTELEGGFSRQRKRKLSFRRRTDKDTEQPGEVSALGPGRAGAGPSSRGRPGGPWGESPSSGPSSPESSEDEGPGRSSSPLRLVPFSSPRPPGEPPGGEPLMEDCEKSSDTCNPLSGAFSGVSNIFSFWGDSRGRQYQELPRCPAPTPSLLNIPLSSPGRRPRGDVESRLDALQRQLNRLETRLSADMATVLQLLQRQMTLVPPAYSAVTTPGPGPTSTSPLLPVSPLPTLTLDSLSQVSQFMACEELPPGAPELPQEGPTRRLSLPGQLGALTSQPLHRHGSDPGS
row,Structure (SMILES),"hERG current change (%, negative = inhibition) at 10uM [%]"
1,O=C(Nc1ccc(F)cc1)c1ccc(Cn2cnnn2)cc1,0.645
2,O=C(Nc1cccc(NC(=O)c2ccc3c(c2)OCO3)c1)c1ccccc1,20
3,Cc1cc(N2C(=O)CCC2=O)ccc1NC(=O)c1cccs1,23.2
4,CCCn1c(N2CCN(S(=O)(=O)Cc3ccccc3)CC2)nc2ccccc21,4.46
5,Cc1cccc(COc2ccc(/C=N/NC(=O)c3nnn(-c4nonc4N)c3CN3CCCCC3)cc2)c1,7.63
6,O=C(CN1CCCCCC1)Nc1ccccc1C(=O)Nc1ccccc1,-11.9
7,CC(C)CCNC(=O)c1ccc(Cl)c(NC(=O)c2ccccc2F)c1,13.9
8,O=C(COc1ccc([N+](=O)[O-])cc1)N(Cc1cccs1)C1CCS(=O)(=O)C1 (centres unmarked),-52.3
9,COCCCN(C(=O)Nc1ccccc1)C(C)c1ccncc1 (centres unmarked),-12.2
10,COc1ccc(C(=O)NC(=S)N2CCCCC2)cc1,2.15
11,COc1cc(-c2noc(C)c2/C=C/c2ccc(OC(C)=O)cc2)cc(OC)c1OC,13
12,O=C(Nc1ccc(NC(=O)C2CCCCC2)cn1)c1ccco1,4.68
13,Cn1c(N2CCN(S(=O)(=O)c3ccc(F)cc3)CC2)nc2ccccc21,-3.73
14,C=CCON1C(=O)C(=O)N(OCC=C)[C@H]2CCCC[C@H]21,-3.99
15,O=C(Nc1nncs1)c1ccc(N2C(=O)C3C4C=CC(C4)C3C2=O)cc1 (centres unmarked),19.8
16,CCOC(=O)Cn1c(=O)n(C2CCCC2)c(=O)c2ccccc21,-13
17,CCOc1ccc2c(c1)c(C(C)=O)c(C)n2Cc1ccco1,10.3
18,COc1ccccc1C(c1nnnn1CS(=O)(=O)c1ccc(C)cc1)N1CCSCC1 (centres unmarked),-4.48
19,COc1ccc(N(C(=O)CNC(=O)c2ccco2)C(C(=O)NC2CCCCC2)c2ccco2)cc1 (centres unmarked),8.58
20,NC(=O)c1ccc(NC(=O)CSc2nnc(C3CCCCC3)n2N)cc1,18
21,Cn1cc(/C=C(\NC(=O)c2ccccc2)C(=O)N2CCOCC2)c2ccccc21,-3.45
22,CCN(CC)C(=O)COC(=O)C1=NN(c2cc(C)ccc2C)C(=O)CC1,13.1

row,Structure (SMILES),"hERG current change (%, negative = inhibition) at 10uM [%]"
1,CCO[C@@H]1OC(C(=O)NCc2ccccc2)=C[C@H](c2ccccc2)[C@H]1CCCO,-18.7
2,O=C(NCCCN1CCN(c2ccccc2F)CC1)C1CCC(=O)N1C1CCCC1 (centres unmarked),-0.824
3,Cc1cccc(CC(=O)Nc2cc(C)c3c(=O)oc4ccccc4c3n2)c1,8.36
4,CCOC(=O)CSc1nnc(CNC(=O)c2cccs2)n1Cc1ccccc1,-22.4
5,CCOCCCNCc1cc(Br)ccc1OCc1ccccc1,-68.1
6,COc1cc(/C=C2\C(=N)N3N=C(S(C)(=O)=O)SC3=NC2=O)ccc1OC(=O)c1ccco1,-0.489
7,C[C@]12CCC(=O)C[C@@H]1CC[C@@H]1[C@@H]2CC[C@]2(C)[C@@H](C(=O)COC(=O)CCC(=O)[O-])CC[C@@H]12.[Na+],28.8
8,COc1ccc(N=C2C(=O)N3c4c(cccc42)C(C)=CC3(C)C)cc1,9
9,CCOc1ccc(S(=O)(=O)NCCC(=O)N2CCCN(C)CC2)cc1,8.05
10,Cc1ccc(NC(=O)CNC(=O)Cc2cccc3ccccc23)nc1,-9.09
11,N=C1c2c(cc(=O)n3c2[nH]c2ccccc23)CN1CCN1CCOCC1,-0.892
12,CN1C(=O)CC(N2CCN(C(c3ccccc3)c3ccccc3)CC2)C1=O (centres unmarked),-3.08
13,CCC(C(=O)NC1CCCCCC1)c1ccccc1 (centres unmarked),9.01
14,COc1ccc(Cl)cc1NC(=O)CN(C)C(=O)c1ccc(-n2nc(C)cc2C)cc1,-35
15,Cc1ccc(C)n1-c1ccc(N(C)C)cc1,18.3
16,CN1C(=O)C(C)(C)c2cc(S(=O)(=O)NCCc3ccc(Cl)cc3)ccc21,-25.1
17,COc1ccc(CC(=O)NCc2nnc(SCC(=O)Nc3ccccc3)n2C)cc1,21.3
18,CCN(CC1CCCN(CCc2cccc(OC)c2)C1)C(=O)C=C(C)C (centres unmarked),-61.1
19,CC1CCCCC1NC(=O)COC(=O)/C=C/c1ccc2c(c1)OCO2 (centres unmarked),14.1
20,COc1ccc(CC(=O)NCC2CCCN(Cc3ccc(OC)cc3F)C2)cc1 (centres unmarked),-36.9
21,Cc1ccc(/C=C/C(=O)OCC(=O)NC(C)C)o1,13.7
22,CCOC(=O)c1c(NC(=S)NC(C)=O)sc(C)c1C,12.1

row,Structure (SMILES),"hERG current change (%, negative = inhibition) at 10uM [%]"
1,Cc1cccc(NCc2nc(SCC(=O)Nc3ccccc3)n[nH]2)c1,12.9
2,Cc1ccc(S(=O)(=O)Nc2ccc(NC(=O)Nc3ccc(F)cc3F)cc2)cc1,-6.28
3,CCN(CC)CCOC(=O)c1ccc(N/C=C(/C#N)c2nc(-c3ccc(OC)c(OC)c3)cs2)cc1,-11.6
4,CC1Cc2ccccc2N1C(=O)CSc1nnc2n1C(C)(C)Cc1ccccc1-2 (centres unmarked),-3.06
5,Oc1cccc(/C=N/Nc2ccc(Cl)nn2)c1O,8.72
6,Cc1cc(Nc2ccc3ccccc3c2)n2ncnc2n1,-16.9
7,COc1ccc(CCNC(=O)CNS(=O)(=O)c2ccc(Cl)cc2)cc1,-4.3
8,Cc1ccc(CN2CCN(/N=C\c3cccc([N+](=O)[O-])c3)CC2)cc1,-19.7
9,COc1ccc(N(CC(=O)NCCC2=CCCCC2)S(=O)(=O)c2ccc(C)cc2)cc1,13.3
10,CN(C)c1ccc(/C=C/C(=O)c2ccccc2)cc1[N+](=O)[O-],-1.57
11,O=C1c2ccccc2C(=O)N1CCc1csc(-c2ccc(F)cc2)n1,-4.79
12,COCCN(C(=S)Nc1ccccc1OC)C(C)c1cccs1 (centres unmarked),-5.11
13,Cc1cc(/C=C2\Cc3ccccc3C2=O)c(C)n1-c1ccccc1,1.62
14,COC(=O)c1ccc(C(=O)OC)c(NC(=S)N2CCCCC2C)c1 (centres unmarked),-11.1
15,CCOc1ccc(CCNC(=O)CN(C)S(=O)(=O)c2ccc3c(c2)CCC(=O)N3)cc1OCC,-16.7
16,Cc1cccc(/C=N/n2c(C3CCCCC3)n[nH]c2=S)c1,17.8
17,CC1Sc2ccc(C(=O)OCc3ccccc3Cl)cc2NC1=O (centres unmarked),4.64
18,COc1ccc(CC(=O)N[C@@H](C)C(=O)N2CCC3(CC2)NCCc2[nH]cnc23)cc1,-0.0497
19,CC(=NCCc1ccccc1)c1c(O)[nH]c(=O)[nH]c1=O,-4.86
20,COc1ccccc1NC(=O)CS(=O)(=O)c1cn(CC(=O)N(C(C)C)C(C)C)c2ccccc12,-43.2
21,O=C(N/N=C/c1ccc2c(c1)OCO2)c1ccc(Cl)cc1Cl,20.3
22,CCc1ccc(NC(=O)CCCn2nc(CC)n3c(cc4occc43)c2=O)cc1,-7.22

row,Structure (SMILES),"hERG current change (%, negative = inhibition) at 10uM [%]"
1,CC(C)(C)c1ccc(COC(=O)CNC(=O)CNC(=O)Cc2ccccc2)cc1,-6.93
2,CCCc1nnc(NC(=O)Cn2c(=O)oc3ccccc32)s1,21
3,O=S(=O)(c1ccccc1)N1CCCCC1c1cccnc1 (centres unmarked),2.3
4,O=C(CSc1ccc([N+](=O)[O-])cn1)Nc1cc(C(F)(F)F)ccc1N1CCOCC1,-34.6
5,COc1ccc(CN2C(=O)c3cccnc3C2Nc2ccc(OC)c(Cl)c2)cc1 (centres unmarked),-11.7
6,CCCc1nc2oc3cc(OC)ccc3c(=O)c2c(=O)n1Cc1ccco1,-40.4
7,COc1ccc2c(c1)-c1c(ssc1=S)C(C)(C)N2,0.994
8,CCC(C)NC(=O)C1CCN(S(=O)(=O)c2cccc3cccnc23)CC1 (centres unmarked),-4.92
9,O=C(c1ccc(S(=O)(=O)Cc2ccccc2F)c([N+](=O)[O-])c1)N1CCCC1,-1.17
10,FC(F)Oc1ccccc1C1CC(c2ccc(Br)s2)Nc2ncnn21 (centres unmarked),2.37
11,CC(C)c1ccccc1NC(=O)c1ccccc1NC(=O)C1CCCCC1,-2.69
12,Cc1ccc(-c2nnn(C/C(N)=N/O)n2)cc1,7.71
13,CCn1cc(/C=N/NC(=O)c2ccc(C#N)cc2F)c2ccccc21,-9.49
14,CN(C)c1cccc2c1c(NC(=O)Nc1ccccc1)nn2C,7.45
15,COc1ccc(/C=N\NC(=O)c2cc(O)c(O)c(O)c2)cc1CN1CCN(c2ccc(F)cc2)CC1,14.6
16,CC(C)(C)NC(=O)c1cccc(NC(=O)Cc2ccc(Br)cc2)c1,-38
17,CCC1(CC)C(=O)C(C)(C)C(=O)OC1c1ccccn1 (centres unmarked),-1.39
18,Cc1c(C#N)c(N=CN(C)C)c(C(=O)c2ccccc2)n1-c1ccccc1,-2.71
19,CC(C)(C)OC(=O)N1CCC(CC2CC(c3ccccc3)=NO2)(C(=O)NCc2ccccc2)CC1 (centres unmarked),-18.3
20,COc1ccccc1N1CCN(CC(O)c2ccccc2)CC1 (centres unmarked),-8.46
